Data taken from article PMC7575553.
These are yes or no findings as the source states them, for the method shown. In cells and extracts the contact can be indirect. Some binding calls cover weakened binding; strength is not graded here.

Chains of the proteins cited; added tags and fusions are not shown.
UniProt Q03135: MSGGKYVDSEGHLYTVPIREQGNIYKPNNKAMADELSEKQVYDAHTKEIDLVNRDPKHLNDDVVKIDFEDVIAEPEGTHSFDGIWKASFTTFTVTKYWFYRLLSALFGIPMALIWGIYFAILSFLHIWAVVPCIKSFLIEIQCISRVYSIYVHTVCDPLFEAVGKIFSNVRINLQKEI
UniProt Q9Y5S8: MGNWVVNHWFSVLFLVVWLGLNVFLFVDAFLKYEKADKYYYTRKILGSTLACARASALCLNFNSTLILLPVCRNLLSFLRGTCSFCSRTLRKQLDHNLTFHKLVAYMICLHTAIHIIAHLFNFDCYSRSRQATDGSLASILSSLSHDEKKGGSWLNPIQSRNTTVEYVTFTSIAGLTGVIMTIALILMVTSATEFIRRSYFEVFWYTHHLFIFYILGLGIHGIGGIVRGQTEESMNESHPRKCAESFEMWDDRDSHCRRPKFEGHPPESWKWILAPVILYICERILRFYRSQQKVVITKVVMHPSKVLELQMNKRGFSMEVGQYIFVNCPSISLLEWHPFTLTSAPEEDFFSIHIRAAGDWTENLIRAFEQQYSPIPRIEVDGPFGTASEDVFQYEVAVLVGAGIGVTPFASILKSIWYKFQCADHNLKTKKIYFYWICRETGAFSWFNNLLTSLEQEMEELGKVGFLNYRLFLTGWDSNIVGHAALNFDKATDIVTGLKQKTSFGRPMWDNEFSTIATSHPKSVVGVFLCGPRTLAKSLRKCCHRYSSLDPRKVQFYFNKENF
UniProt Q99497: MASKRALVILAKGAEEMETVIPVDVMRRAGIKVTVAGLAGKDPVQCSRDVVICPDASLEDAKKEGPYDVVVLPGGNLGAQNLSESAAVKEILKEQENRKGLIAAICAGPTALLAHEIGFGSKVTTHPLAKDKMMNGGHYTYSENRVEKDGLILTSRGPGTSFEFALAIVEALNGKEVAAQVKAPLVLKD

T1: Nox5 (human (endogenous in primary VSMCs)) (UniProt Q96PH1)
T1 sequence: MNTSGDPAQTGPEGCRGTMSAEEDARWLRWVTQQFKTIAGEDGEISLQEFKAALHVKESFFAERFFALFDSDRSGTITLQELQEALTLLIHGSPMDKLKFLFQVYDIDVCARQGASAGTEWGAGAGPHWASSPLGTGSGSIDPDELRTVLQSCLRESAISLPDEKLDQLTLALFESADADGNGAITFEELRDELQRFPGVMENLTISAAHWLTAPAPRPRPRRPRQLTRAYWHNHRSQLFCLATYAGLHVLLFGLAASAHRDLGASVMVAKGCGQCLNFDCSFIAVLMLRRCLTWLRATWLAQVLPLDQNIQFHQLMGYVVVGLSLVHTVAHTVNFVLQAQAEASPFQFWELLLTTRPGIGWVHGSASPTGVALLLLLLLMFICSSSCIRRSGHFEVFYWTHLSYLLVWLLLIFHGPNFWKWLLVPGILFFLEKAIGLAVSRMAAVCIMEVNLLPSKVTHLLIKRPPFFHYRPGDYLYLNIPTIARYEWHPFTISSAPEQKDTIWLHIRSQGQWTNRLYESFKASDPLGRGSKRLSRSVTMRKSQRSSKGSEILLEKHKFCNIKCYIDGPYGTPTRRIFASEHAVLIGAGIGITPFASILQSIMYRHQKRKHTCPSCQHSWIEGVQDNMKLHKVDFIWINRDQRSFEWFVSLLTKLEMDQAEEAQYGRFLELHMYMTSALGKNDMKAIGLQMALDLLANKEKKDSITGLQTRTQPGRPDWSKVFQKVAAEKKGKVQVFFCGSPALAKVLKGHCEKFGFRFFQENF


Experiments:
Test in all cases: co-IP; immunoprecipitation from 200-500 ug protein lysates of primary human VSMCs with antibodies to Cav-1, total DJ1, Nox5 or Nox1; immunoblot of the precipitates for Cav-1, Nox1, Nox5 and DJ1
[1] = target: T1, Nox5 (human (endogenous in primary VSMCs))
[2] = target: caveolin-1 (human (endogenous in primary VSMCs)) (UniProt Q03135)
[3] = target: Nox1 (human (endogenous in primary VSMCs)) (UniProt Q9Y5S8)

| binding [1] | binding [2] | binding [3] | Molecule |
| --- | --- | --- | --- |
| no binding | binds | binds | PARK7 (Parkinson's disease protein-7) (from UniProt Q99497 1-189) |
|  | binds |  | Nox1 (from UniProt Q9Y5S8 1-564) (enzyme) |
|  | no binding |  | Nox5 (enzyme, UniProt Q96PH1 1-765) MNTSGDPAQTGPEGCRGTMSAEEDARWLRWVTQQFKTIAGEDGEISLQEFKAALHVKESFFAERFFALFDSDRSGTITLQELQEALTLLIHGSPMDKLKFLFQVYDIDVCARQGASAGTEWGAGAGPHWASSPLGTGSGSIDPDELRTVLQSCLRESAISLPDEKLDQLTLALFESADADGNGAITFEELRDELQRFPGVMENLTISAAHWLTAPAPRPRPRRPRQLTRAYWHNHRSQLFCLATYAGLHVLLFGLAASAHRDLGASVMVAKGCGQCLNFDCSFIAVLMLRRCLTWLRATWLAQVLPLDQNIQFHQLMGYVVVGLSLVHTVAHTVNFVLQAQAEASPFQFWELLLTTRPGIGWVHGSASPTGVALLLLLLLMFICSSSCIRRSGHFEVFYWTHLSYLLVWLLLIFHGPNFWKWLLVPGILFFLEKAIGLAVSRMAAVCIMEVNLLPSKVTHLLIKRPPFFHYRPGDYLYLNIPTIARYEWHPFTISSAPEQKDTIWLHIRSQGQWTNRLYESFKASDPLGRGSKRLSRSVTMRKSQRSSKGSEILLEKHKFCNIKCYIDGPYGTPTRRIFASEHAVLIGAGIGITPFASILQSIMYRHQKRKHTCPSCQHSWIEGVQDNMKLHKVDFIWINRDQRSFEWFVSLLTKLEMDQAEEAQYGRFLELHMYMTSALGKNDMKAIGLQMALDLLANKEKKDSITGLQTRTQPGRPDWSKVFQKVAAEKKGKVQVFFCGSPALAKVLKGHCEKFGFRFFQENF |
